This passage reports z-score results from PubChem BioAssay AID488969 (Vanderbilt High Throughput Screening Facility, 2010).

The full ranking holds about 110,000 compounds; the median of “z-score” is about -0.1, and the highest 2% start at about 2. The list shows a part of the results. Activity calls are given as the source filed them.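 How the source made its calls: active means z-score in the third read window above 3 or below -3; inactive means the rest.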

The target of this assay is Metabotropic glutamate receptor 8 (Rattus norvegicus) (UniProt P70579). Kind of assay: rat mGluR8 modulators via GIRK flux, primary screen, cell-based, thallium flux, HTS (AID 488969). The settings on record: HEK293 rat mGluR8, GIRK (G protein-gated inwardly rectifying potassium channel) thallium flux, FluoZin2; at 10 µM; stronger effect = higher value; submaximal glutamate (EC20) added with thallium.
UniProt P70579, sequence (P70579 whole entry, looked up): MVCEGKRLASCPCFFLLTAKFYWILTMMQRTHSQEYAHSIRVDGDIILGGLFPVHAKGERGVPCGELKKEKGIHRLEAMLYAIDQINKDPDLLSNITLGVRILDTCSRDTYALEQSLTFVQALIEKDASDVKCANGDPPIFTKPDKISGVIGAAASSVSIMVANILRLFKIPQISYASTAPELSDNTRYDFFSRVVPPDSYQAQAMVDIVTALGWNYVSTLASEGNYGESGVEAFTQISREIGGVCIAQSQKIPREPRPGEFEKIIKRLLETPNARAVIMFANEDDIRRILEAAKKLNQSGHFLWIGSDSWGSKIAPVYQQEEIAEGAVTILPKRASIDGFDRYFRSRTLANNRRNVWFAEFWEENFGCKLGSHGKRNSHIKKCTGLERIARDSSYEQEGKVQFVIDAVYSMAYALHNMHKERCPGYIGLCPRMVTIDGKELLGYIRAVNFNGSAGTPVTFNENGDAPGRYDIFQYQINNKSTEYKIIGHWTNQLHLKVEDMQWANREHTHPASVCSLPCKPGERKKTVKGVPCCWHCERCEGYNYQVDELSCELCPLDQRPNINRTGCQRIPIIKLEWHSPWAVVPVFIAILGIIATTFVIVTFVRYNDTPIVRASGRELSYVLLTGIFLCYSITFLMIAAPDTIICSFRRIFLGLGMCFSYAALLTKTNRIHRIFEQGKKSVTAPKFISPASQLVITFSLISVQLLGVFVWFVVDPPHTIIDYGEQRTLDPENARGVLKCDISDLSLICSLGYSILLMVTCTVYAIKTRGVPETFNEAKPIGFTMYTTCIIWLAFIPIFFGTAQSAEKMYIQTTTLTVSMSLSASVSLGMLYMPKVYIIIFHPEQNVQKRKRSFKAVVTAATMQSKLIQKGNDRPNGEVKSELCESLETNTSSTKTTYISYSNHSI
The compound `COc1ccc(C(=O)N(Cc2ccc(N(C)C)cc2)C2CCS(=O)(=O)C2)cc1` (stereo unspecified) returned a z-score of 0.338.

Turning to `COc1ccc(-c2nnc(SCC(=O)N3CCC(Cc4ccccc4)CC3)o2)cc1OC`, the z-score is -0.465. In the case of `CCOc1cc(C(=O)NC(C)COC)cc(OCC)c1OCC` (stereo unspecified) it was -1.51. For `CC(CN1CCOCC1)OC(=O)C(c1ccccc1)c1ccccc1` (stereo unspecified), the z-score turned out to be 0.0321. Turning to `CC(C)(C)OC(=O)NCCc1nnc(SCc2c(Cl)cccc2Cl)o1`, the z-score was -0.686. The compound `CC1(C)Cc2c(c(N3CCOCC3)nc3snc(NC(=O)c4ccccc4)c23)CO1` yielded a z-score of 0.0329. For `Cc1ccc(Cl)cc1NC(=O)CSc1nnc(C)n1-c1ccccc1`, the z-score came to 0.427. In the case of `O=C(N/N=C/c1ccc(OC(=O)c2ccccc2)cc1)c1ccc(CN2CCOCC2)cc1` it was 0.54; in that of `Cc1nc2ccc(NC(=O)c3ccc(Cl)s3)cc2s1`, -0.159; in that of `COc1ccc(C(NC(=O)c2ccc(F)cc2)c2ccccc2)cc1` (stereo unspecified), -0.0936. In the case of `N/C(=N\OS(=O)(=O)c1ccc(Cl)cc1)c1ccncc1` it was -0.373. In the case of `O=C(NCc1ccccc1)c1ccc(Cn2cc(C(F)(F)F)ccc2=O)cc1` it was -0.124.

On to `Cn1c(=O)cc(OCCCC(=O)NCc2ccc3c(c2)OCO3)c2ccccc21`, for which the z-score is active: 8.84. `O=C(O/N=C1/CCCc2occc21)c1ccccc1` had a z-score of -0.154. In the case of `CCC(=O)CCC(=O)c1ccc2ccccc2c1` it was 0.241; in that of `COc1ccc(OCC(=O)NNC(=O)C(=O)N2CCCC2)cc1`, 0.0724; in that of `CCCOc1ccc(CCc2n[nH]c(=S)n2Cc2ccccc2)cc1`, -0.306. The compound `CC(C)CC(=O)Nc1nnc(SCC(=O)Nc2ccc3c(c2)OCO3)s1` returned a z-score of 0.256. In the case of `COc1ccc(N/C=C(\C#N)c2nc3ccccc3n2C)c(OC)c1` it was 0.286; in that of `CC1CCN(CCOCCOc2ccc(Cl)cc2Br)CC1`, 0.206; in that of `COC(=O)c1scc(C)c1N/N=C(\C)c1cc(F)c(Cl)cc1F`, -0.00092. In the case of `Nc1ccc2nc(-c3ccccn3)[nH]c2c1` it was 0.037; in that of `COc1cc(C2NC(=O)c3ccccc3O2)cc(OC)c1OC` (stereo unspecified), 0.57; in that of `CCC1Oc2ccc(C)cc2N(CC(=O)N(Cc2ccc(C)o2)C2CCCC2)C1=O` (stereo unspecified), 0.943. In the case of `C=CCn1c(COc2ccc(CC)cc2)nnc1SCC(=O)N(C)C1CCS(=O)(=O)C1` (stereo unspecified) it was -0.465; in that of `Cc1ccc(C(=O)NCC(=O)OCC(=O)Nc2ccc(Cl)cc2C(F)(F)F)cc1C`, -0.629; in that of `O=C(NCCc1ccccc1)c1ccc(Br)o1`, -0.459. In the case of `CCN(CC(=O)NC(C)C)C(=O)c1ccc(Cl)cc1`, the z-score is -0.145. Compound `O=C(O)CCCc1nc(-c2ccc(Cl)cc2)no1` registered a z-score of 0.187. Compound `CC1CCN(C(=O)C(C)Sc2nc(-c3ccccc3)cc(C(F)(F)F)n2)CC1` (stereo unspecified) had a z-score of -0.911.

`CCOC(=O)c1ccc(-c2ccc(/C=N/NC(=O)CN(c3cccc(C)c3)S(C)(=O)=O)o2)cc1` returned a z-score of -0.0521. In the case of `O=C(CN1C(=O)c2ccccc2C1=O)N1CCN(C2c3ccccc3-c3ccccc32)CC1` it was -0.0989; in that of `Cc1[nH]c2ccccc2c1C(=O)C(=O)N1CC=C(c2ccccc2)CC1`, -0.204. In the case of `Cn1c(=O)cc(SCC(=O)N2CCN(c3ccccc3)CC2)c2ccccc21` it was -0.379. In the case of `COc1ccccc1CNC(=O)C1CCCN1S(=O)(=O)c1cccc2cccnc12` (stereo unspecified) it was 0.0304; in that of `O=C(Nc1ccc2c(c1)OCO2)N1CCN(c2cccc(C(F)(F)F)c2)CC1`, 0.62; in that of `CCOc1ccc(NC(=O)C2CCN(C(=O)NC3CCCCC3)CC2)cc1`, -0.378. In the case of `CC1(C)NC(=O)N(CCCOc2ccccc2Br)C1=O`, the z-score is -0.224. In the case of `COc1cccc(C(=O)NCC(=O)OCC(=O)C(C)(C)C)c1` it was 0.102; in that of `CCCCNC(=O)c1sc2ncnc(N3CCc4ccccc4C3)c2c1C`, -1.83. In the case of `Cc1ccc(-c2nnc(Nc3ccccc3)o2)cc1` it was 1.1; in that of `Cc1ccc(-c2cc(C(=O)NC3=NCCS3)c3cc(Br)ccc3n2)o1`, -0.551; in that of `COC(=O)c1sccc1NC(=O)Nc1ccc(Cl)c(Cl)c1`, -0.163. In the case of `Cc1ccc(Sc2ccc(NC(=O)c3ccc(S(C)(=O)=O)cc3Cl)cc2)cc1` it was 0.285.

For the compound `O=C(NCc1ccco1)C1CCCN1S(=O)(=O)c1ccc2ccccc2c1` (stereo unspecified), the z-score is -0.476. Turning to `CC1(C)C(=O)OC(C(=O)c2ccc(Cl)cc2)C(C)(C)C1=O` (stereo unspecified), the z-score is 0.189. In the case of `Cc1cccc(NC(=O)Cc2noc3ccccc23)c1` it was 0.0168; in that of `CCOC(=O)CC(=O)CSc1nc2c(C)c(C)ccc2cc1C`, -0.0827; in that of `CC(C)c1ccc(CNC(=O)CSCC(=O)Nc2ccc3ccccc3c2)cc1`, -0.115.

In the case of `COc1ccc(C(=O)Nc2cc(OC)nc(OC)n2)cc1`, the z-score stood at 0.144. In the case of `CCn1cc(Cl)c(C(=O)NNC(=O)CCn2nc(C)c([N+](=O)[O-])c2C)n1` it was 0.129.

With `O=C(Oc1cccc(-n2cnnn2)c1)C1CCCCC1`, the z-score was determined as 0.757.

As to `O=C(C1CCN(c2ncnc3c2sc2cccc(F)c23)CC1)N1CCOCC1`, the z-score is active: -3.19. In the case of `CCn1c(SCc2cc(=O)[nH]c3ccccc23)nc2c1c(=O)n(C)c(=O)n2C` it was 0.0088; in that of `Cc1sc2nc(SCC(=O)NCc3ccco3)n(C)c(=O)c2c1C`, -0.982. In the case of `Cc1ccc(Nc2nc(N)nc(CSc3nccn3C)n2)cc1` it was 1.08. In the case of `CC(Oc1ccc2c(-c3ccccc3)cc(=O)oc2c1)C(=O)O` (stereo unspecified) it was 0.884; in that of `O=C(Nc1cccc(Cl)c1N1CCCCC1)c1ccc2c(c1)OCCO2`, -0.178; in that of `Cc1ccc2occ(/C=C/C(=O)c3ccccc3O)c(=O)c2c1`, -0.0774. `O=C(NCCN1C(=O)S/C(=C\c2ccc(F)cc2)C1=O)C1CCN(S(=O)(=O)c2cccs2)CC1`: the z-score was -0.242. In the case of `CCCNC(=O)c1cc2nc(-c3ccccc3)cc(C(F)(F)F)n2n1` it was 0.138; in that of `CC1(C(=O)NC2CCCCC2)CCC(=O)N1Cc1cccs1` (stereo unspecified), 0.262; in that of `CCCCn1cnc2c(cnn2-c2ccc(Cl)cc2)c1=O`, -1.12.

`O=C(CSCc1ccccn1)Nc1ccccc1` showed a z-score of -0.336. In the case of `COC(=O)c1cc(NC(=O)Cc2ccccc2[N+](=O)[O-])ccc1Cl` it was 0.808; in that of `O=S(=O)(/C=C/c1ccccc1)c1ccccc1`, -0.103.

Compound `Cc1ccc(-c2nnc(SCC(=O)N/N=C/c3ccc(C)s3)n2-c2ccccc2)cc1` showed a z-score of -1.03. In the case of `Cc1ccc(NC(=O)COC(=O)/C=C/c2ccco2)cc1S(=O)(=O)N(C)C` it was 1.23. In the case of `O=[N+]([O-])c1cn(Cc2ccc(Cl)cc2)cn1` it was -0.364. In the case of `Cc1ccc(S(=O)(=O)N2CCN(CC(=O)Nc3ccc(N4CCOCC4)cc3)CC2)cc1C`, the z-score was -0.522. In the case of `Cc1cc(C)cc(NC(=O)C/C(N)=N/O)c1` it was 0.116.
